Results: patent EP1595536A1, “PHARMACEUTICALS COMPRISING SHIKONINS AS ACTIVE CONSTITUENT” (Beijing JBC Chinese Traditional Medicine Science and …, priority 2003, dated 2004)

Tested on: mouse's splenic cell and NK cell
Assay: Mouse model of low immunologic function caused by mitomycin C
Conditions: 6mg/kg injected in the abdominal cavity for 5 days, P<0.001

For `CC(C)=CCC(OC(=O)C=C(C)C)C1=CC(=O)c2c(O)ccc(O)c2C1=O` (stereo not shown), the “increase of cell toxicant in the mouse's splenic cell and NK cell” value was “around 20%”.
